US20220370434A1, “METHODS AND COMPOSITIONS FOR TREATING CANCER” (City of Hope, priority 2019, published 2022)

Columns and labels:
healthy CD34+ HSPCs = assay: Cell viability of healthy donor-derived CD34+ HSPCs; assay type: cell-based, human; details: 100 nM formula (I), 200 nM formula (II), 48 hours
NOMO-1 AML cells = assay: Xenograft AML mouse model with NOMO-1 cells; assay type: in vivo, NRGS mice; details: cells pretreated 100 nM 48 hours; 2 mg/kg/day every other day i.p., ten treatments
MA9.3ITD AML cells = assay: Xenograft AML mouse model with MA9.3ITD cells; details: for survival (Kaplan-Meier): cells pretreated 100 nM 48 hours, 2 mg/kg/day every other day i.p., ten treatments; for engraftment of human AML cells (hCD33 positive): peripheral blood, bone marrow, spleen, end point
[1] = tested on: murine MLL-AF9 (MA9) and FLT3ITD/NPM1mut primary leukemic cells; assay: Self-renewal of LSCs/LICs (limiting dilution analysis); assay type: cell-based
Method: Given the increased abundance of FTO in AML cells and CD34^+ AML cells, we reasoned the critical oncogenic function of FTO both in established leukemic cells as well as in LSCs. The function of FTO on myeloid differentiation, cell apoptosis and colony forming activity of AML patients derived LSCs was evaluated. It was observed that leukemia differentiation following FTO knockdown is associated with increased cell apoptosis in AML patients.

[2] = tested on: NOMO-1 AML cells with FTO knockdown; assay: Cell viability with knockdown of FTO (shFTO); assay type: cell-based
[3] = tested on: murine FLT3ITD/NPM1mut leukemic cells; assay: Colony forming assay
K562 and TF-1 cells = assay: Cell growth/proliferation IC50 in leukemia cells with lower FTO expression; details: 72 hours; cells with low FTO expression
[4] = tested on: primary murine MLL-AF9 (MA9) leukemic cells; assay: Colony forming assay; details: 10 nM and 50 nM
[5] = tested on: NOMO-1, MONOMAC 6 (MM6), MV4-11, ML-2, MA9.3ITD and U937 cells; assay: Cell growth/proliferation IC50 in leukemia cells with higher FTO expression; details: 72 hours; cells with high FTO expression
NB4 cells = assay: ATRA induced myeloid differentiation (CD11b, CD14); assay type: cell-based; details: 200 nM ATRA, 50 nM formula (I) or 100 nM formula (II), 48 hours
Method: Flow cytometry analysis: Flow cytometry analysis with surface markers was conducted as described previously with some modifications (33). Antibodies used include anti-mouse CD45.2-PE (12-0454-83, Thermo Fisher Scientific), anti-Human CD33 PE (12-0339-42, Thermo Fisher Scientific), PE anti-mouse/human CD11b antibody, anti-Human CD15 APC (17-0158-42, eBioscience), and anti-Human CD34 FITC (11-0349-42, eBioscience).

NOMO-1 cells = assay: Cell cycle assay; assay type: cell-based; details: 48 hour
Method: Cell cycle and apoptosis assays: Propidium Iodide (PI) DNA staining was chosen to assess the cells located at G0/G1, S, and G2/M stages; while Hoechest 33342 and Pyronin Y was selected to evaluate cells at G0, G1, and S/G2/M phases. For PI staining, 1*10^6 cells were collected, washed once with PBS, and suspended in 1 ml buffer with 0.05 mg/ml PI, 0.1% trisodium citrate, 0.02 mg/ml ribonuclease A, 0.3% NP-40, incubated at 37° C. for 30 minutes, and then applied to flow cytometer directly. As Hochest 33342/Pyronin Y staining, the cells were collected, washed, and re-suspended in 1 ml cell culture medium, stained with 10 μg/ml Hochest 33342 at 37° C. for 45 minutes, and further stained with 0.5 μg/ml Pyronin Y for additional 15 minutes at 37° C. The samples were transferred onto ice before subjected to flow cytometry. Cell apoptosis was validated with PE Annexin V Apoptosis Detection Kit I (559763, BD Biosciences) according to the instructed protocol. Flow cytometry was performed with Fortessa X20 and the related results were analyzed with FlowJo V10 software.

TET1 = TET1 (Homo sapiens, UniProt Q8NFU7); assay: DNA demethylase activity of TET1; assay type: biochemical

| Compound | toxicity on normal cells (cell viability) (healthy CD34+ HSPCs) | survival (Kaplan-Meier) (NOMO-1 AML cells) | survival (Kaplan-Meier) (MA9.3ITD AML cells) | anti-leukemic effects compared with FB23-2 (survival, spleen weight, engraftment) (MA9.3ITD AML cells; mouse, in vivo) | engraftment of human AML cells (hCD33 positive) (MA9.3ITD AML cells) | self-renewal activity of LSCs/LICs [1] | sensitivity upon knockdown of FTO (shFTO) [2] | colony forming activity ([3]; 10 nM and 50 nM, b390) | IC50 values (K562 and TF-1 cells) | colony forming activity [4] | IC50 values [5] | myeloid differentiation (NB4 cells) | cell cycle, Hoechest 33342/Pyronin Y staining (NOMO-1 cells) | cell cycle, PI staining (NOMO-1 cells) | DNA demethylase activity of TET1 (TET1) | colony forming activity ([3]; 1 μM and 5 μM) |
| --- | --- | --- | --- | --- | --- | --- | --- | --- | --- | --- | --- | --- | --- | --- | --- | --- |
| C(=N\NC1=NCCN1)/c1c2ccccc2c(/C=N/NC2=NCCN2)c2ccccc12 [formula (I)] | little obvious toxicity on normal cells | lived significantly longer than the control groups | lived significantly longer than the control groups | much stronger anti-leukemic effects than FB23-2 | blocked engraftment of leukemia cells into peripheral blood, bone marrow, and spleen | attenuation on self-renewal activity of LSCs/LICs | decreased the sensitivity | decreased the colony forming activity | higher IC50 values | decreased the colony forming activity | lower IC50 values | accelerated ATRA induced myeloid differentiation | Cell cycle arrest in G0 phase | cell cycle arrest was observed in G0/G1 and S stages | did not suppress | – |
| Cc1c(-c2ccc(-c3ccccc3F)cc2)nc2ccc(F)cc2c1C(=O)O [formula (II)] | little obvious toxicity on normal cells | lived significantly longer than the control groups | lived significantly longer than the control groups | – | blocked engraftment of leukemia cells into peripheral blood, bone marrow, and spleen | attenuation on self-renewal activity of LSCs/LICs | decreased the sensitivity | – | higher IC50 values | – | lower IC50 values | accelerated ATRA induced myeloid differentiation | Cell cycle arrest in G0 phase | cell cycle arrest was observed in G0/G1 and S stages | did not suppress | decreased the colony forming activity |
